Values joined by “and” are separate entries in the source; they are usually repeats but may differ in a detail not shown here. Equal values may be shown once. The whole screen tested about 72,000 compounds, of which about 710 (0.99%) were called active. Inconclusive means that the source gave no clear call. Such entries were picked first, then a sample of the others. The call rests on the fitted dose curve; in most records, active means well fitted inhibition curve with a large enough effect; inconclusive means small, poorly fitted or top-dose-only effect; inactive means no such curve, though single readings can be large or run the other way. Potencies of inconclusive entries are doubtful fits and often do not repeat.
Experiment: qHTS Assay for Inhibitors of the ERK Signaling Pathway using a Homogeneous Screening Assay; further: nearly all actives have a fitted effect of over 55% in size
Conditions: HEK293-V1b, vasopressin-stimulated pERK AlphaScreen; activity, negative = inhibition: at 57.5 µM (top of the series) unless noted
In short: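 Phosphorylated ERK1/2 detected via AlphaScreen bead proximity in lysates of V1b-expressing HEK293 cells given 25 nM vasopressin for 5 min after 30 min compound exposure (37 °C). AC50 from Hill equation; basal DMSO 0%, vasopressin 100%.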
On the % scale 0 is the no-effect control and ±100 the full control effect; potency means the concentration at half of the fitted maximal effect; tags describe the fitted curve by direction and shape.

activity, negative = inhibition, inconclusive:
CCN(Cc1ccncc1)C(=O)[C@@H](CO)c1ccccc1 -30% [inhibitor]
O=c1c(CCc2ccccc2)nc2cnc(N3CCNCC3)nc2n1Cc1ccc(F)cc1 -32.7% [inhibitor]

activity, negative = inhibition, inactive:
C=CCSc1nc2ccccc2c(=O)n1Cc1ccco1 -14.9% [at 11.5 µM]
O=C(N[C@@]1(C(=O)O)C[C@@H]1c1ccccc1)c1ccccc1 23% [at 11.5 µM]
CN(C)C[C@@H](O)c1ccc(Cl)c2ccccc12 2.12% [at 11.5 µM]
CC(=O)OCC1OC(C#Cc2ccc(Cl)cc2)C=CC1OC(C)=O (stereo not drawn) 27.1% [at 11.5 µM] and 5.62% [at 11.5 µM]

Potency, inconclusive:
Cn1c(N)c(C(=O)COC(=O)c2cc(-c3ccco3)nc3ccccc23)c(=O)n(C)c1=O 10 µM [inhibitor, partial curve]
Cc1nc2oc3c(NCc4ccccc4)ncnc3c2c2c1COC(C)(C)C2 10 µM [inhibitor, partial curve]
COC(=O)c1cc(OC)c(OC)cc1NC(=O)CCc1ccc(C)o1 15.8 µM [inhibitor, partial curve]
CNC(=O)c1[nH]cnc1C(=O)Nc1cccc(OC)c1 1 µM [inhibitor, full curve, poor fit]
Cc1ccc(C)n1-n1c(C)nc2scc(-c3cccs3)c2c1=O 5.01 µM [inhibitor, partial curve, poor fit]
CN=C1c2ccccc2CN1c1cccc(C(=O)OC)c1 10 µM [inhibitor, full curve, poor fit]
CC1CCN(c2nc3c(c(=O)n(C)c(=O)n3C)n2Cc2ccccc2)CC1 39.8 µM [inhibitor, single point]
CCCCCN=c1ccn(Cc2ccccc2)c2ccccc12 39.8 µM [inhibitor, partial curve, poor fit]
Cc1occc1C(=O)Nc1ccc(S(=O)(=O)N2CCCC2)cc1 20 µM [inhibitor, partial curve]
C=CCN1C(c2ccc(OCC)cc2)=CS/C1=C(\C#N)c1nnc2n1CCCCC2 39.8 µM [inhibitor, single point]
COc1ccccc1-c1cc(NCc2ccccc2)ncn1 12.6 µM [inhibitor, partial curve]
O=C(Nc1cnn(C23CC4CC(CC(C4)C2)C3)c1)c1cnn2c(C(F)(F)F)cc(-c3ccco3)nc12 3.16 µM [inhibitor, partial curve]
COc1ccc(N(C)S(=O)(=O)c2cccc3cccnc23)c(OC)c1 0.199 µM [inhibitor, full curve, poor fit]
CCn1c(=O)n(CC)c2cc(S(=O)(=O)N3CCc4ccccc43)ccc21 1.58 µM [inhibitor, full curve, poor fit]
CCCCCCCCNC(C)C(O)c1ccc(SC(C)C)cc1 (stereo not drawn) 31.6 µM [inhibitor, single point]
COC(=O)c1ccc(NC(=O)Nc2ccc(F)cc2)cc1 39.8 µM [inhibitor, single point]
CN(C)c1ncc2ncc(=O)n(CCc3ccccc3)c2n1 6.31 µM [inhibitor, partial curve, poor fit]
CCOC(=O)CC(=O)CSc1nnc2c(n1)[nH]c1ccccc12 3.98 µM [inhibitor, single point]
COc1ccc(O)c(-c2c(-c3ccc(Cl)cc3)n[nH]c2C)c1 39.8 µM [inhibitor, single point]
COc1ccc(CNc2ncnc3ccc(-c4ccc5c(c4)OCO5)cc23)c(OC)c1 25.1 µM [inhibitor, single point]
COCc1nnc(SCC(=O)NCc2ccccc2)n1-c1ccccc1 2.51 µM [inhibitor, partial curve]
O=c1c(-c2ccc(F)cc2)nc2cnc(N3CCNCC3)nc2n1-c1ccccc1 39.8 µM [inhibitor, single point]
CCCn1nnc(NC(=O)COc2ccc(C3CCCCC3)cc2)n1 15.8 µM [inhibitor, single point]
O=C1Nc2ccc(I)cc2/C1=C/c1cc(Br)c(O)c(Br)c1 12.6 µM [inhibitor, partial curve]
CCN(CC)S(=O)(=O)c1ccc2oc(C(=O)N3CCCCCC3)c(C)c2c1 20 µM [inhibitor, partial curve]
O=C1c2ccccc2C(=O)N1CCc1nc2ccccc2c(=O)n1CCCn1ccnc1 39.8 µM [inhibitor, single point]
CC1CN(c2ncnc3c2oc2ccccc23)CC(C)O1 (stereo not drawn) 31.6 µM [inhibitor, partial curve]
Cc1ccc(C(=O)Nc2ccc(Cl)cn2)cc1S(=O)(=O)N1CCOCC1 25.1 µM [inhibitor, partial curve]
O=C1C2C3C=CC(C3)C2C(=O)N1CNc1ccccc1 (stereo not drawn) 39.8 µM [inhibitor, single point]
COc1ccc(-c2cc(C(=O)OCC(=O)N(C)C)c3ccccc3n2)cc1 15.8 µM [inhibitor, partial curve]
CSc1snc(SCC(N)=O)c1C#N 7.94 µM [inhibitor, partial curve]
Cc1nc2ccc(NC(=O)Nc3ccnc4cccnc34)cc2o1 39.8 µM [inhibitor, single point]
CN(C)c1ccc(C(=N)c2ccc(N(C)C)cc2)cc1 15.8 µM [inhibitor, partial curve, poor fit]
c1ccc2c(Nc3ccncc3)nc(-c3ccc4c(c3)OCO4)nc2c1 20 µM [inhibitor, partial curve]
O=C(NCc1ccco1)c1cc2sccc2n1Cc1ccccc1 0.1 µM [inhibitor, full curve, poor fit]
c1ccc(-n2cnc3cc(NCc4ccncc4)ccc32)cc1 39.8 µM [inhibitor, single point]
COc1cc2ccccc2cc1C(=O)OCC(=O)N1CCOCC1 0.501 µM [inhibitor, single point]
O=C1C2C3c4ccccc4C(c4ccccc43)C2C(=O)N1Cc1ccco1 (stereo not drawn) 7.94 µM [inhibitor, partial curve, poor fit]
Cc1nc2ccccc2c2oc(C(=O)NC3CC3)cc12 12.6 µM [inhibitor, partial curve]
O=C1Nc2ccc(S(=O)(=O)NCc3ccco3)c3cccc1c23 15.8 µM [inhibitor, partial curve]
c1ccc(-c2nc(NCc3cccnc3)c3oc4ccccc4c3n2)cc1 39.8 µM [inhibitor, single point]
COc1ccc(-c2nc(SC)n(C)c(=O)c2C#N)cc1OC 12.6 µM [inhibitor, single point]
COc1cccc(-c2nnc(SCc3nc4ccccc4[nH]3)n2N)c1 10 µM [inhibitor, partial curve]

Potency, inactive:
O=C(COC(=O)c1cccnc1)c1ccc(Cl)cc1
COc1ccc(CNc2ccnc(-c3cccc(C#N)c3)n2)c(OC)c1
CCOc1ccc2nc(C)cc(C(=O)O)c2c1
O=C(OCc1nc2ccccc2s1)c1cccs1
Cc1nc2ccc(F)cc2cc1C(=O)NCC1CCCO1 (stereo not drawn)
CC1CCCCN1CCNS(=O)(=O)c1ccc2c(c1)oc(=O)n2C (stereo not drawn)
CCOc1nonc1C(=N)/C(C(C)=O)=C(\C)O
CC1=CC2C(CC1=O)C(C)=CCC2C(C)C (stereo not drawn)
COc1cccc(Nc2ncc3nc(CCc4ccccc4)c(=O)n(CCC#N)c3n2)c1
CCOC(=O)c1cnc(-n2nc(C)cc2C)nc1Nc1ccc2c(c1)OCO2
Cc1cc(C)nc(N2CCN(c3nc(C)nc4c3oc3ccccc34)CC2)n1
CC(C)Sc1oc(-c2ccco2)nc1S(=O)(=O)c1ccc(F)cc1
O=C(c1cc(-c2ccc3c(c2)OCO3)on1)N1CCOCC1
COc1ccc(-c2ccc(-c3noc(-c4ccccc4C)n3)c(OC)n2)cc1
CCOC(=O)c1oc2ccc(Br)cc2c1NC(=O)CN1CCN(C)CC1
Cc1ccc2nc(-c3cccc(S(=O)(=O)N(C)C)c3)cn2c1
ON=Cc1cccn1-c1ccccc1
Cc1cc(=O)n2[nH]c(C)c(-c3ccc(Cl)cc3)c2n1
O=C(c1cc(C(F)(F)F)cc(C(F)(F)F)c1)N1CCC2(CCCN(c3ncccn3)C2)CC1
COc1ccc(N2CCN(C(=O)CSc3nnc(C)c(=O)[nH]3)CC2)cc1
Cc1onc(-c2ccccc2)c1C(=O)Nc1ccc2c(c1)OCO2

Potency, active:
Cc1nc2ccccc2c2oc(C(=O)NCC3COc4ccccc4O3)cc12 (stereo not drawn) 10 µM
COc1ccccc1CNc1ncnc2ccc(-c3ccccc3OC)cc12 20 µM
Clc1ccc2[nH]c3c(NCC4CCCO4)ncnc3c2c1 (stereo not drawn) 25.1 µM
